Data from the supplement of paper PMC3334620.
Whole data set: some 33,000 sequences, median “E-score (-0.5 to 0.5)” near -0.011, cut for the highest 2% near 0.28. The list shows a part of the results.

Each sequence was assayed against T1, Gcr1 (UniProt P07261) (assay: PBM E-score (8-mer binding enrichment) (E-score (-0.5 to 0.5)); higher = stronger / more preferred TF binding; most listed sequences are background and not binding sites). Details: protein concentration: 100 nM; construct: GST-full length.
T1 sequence: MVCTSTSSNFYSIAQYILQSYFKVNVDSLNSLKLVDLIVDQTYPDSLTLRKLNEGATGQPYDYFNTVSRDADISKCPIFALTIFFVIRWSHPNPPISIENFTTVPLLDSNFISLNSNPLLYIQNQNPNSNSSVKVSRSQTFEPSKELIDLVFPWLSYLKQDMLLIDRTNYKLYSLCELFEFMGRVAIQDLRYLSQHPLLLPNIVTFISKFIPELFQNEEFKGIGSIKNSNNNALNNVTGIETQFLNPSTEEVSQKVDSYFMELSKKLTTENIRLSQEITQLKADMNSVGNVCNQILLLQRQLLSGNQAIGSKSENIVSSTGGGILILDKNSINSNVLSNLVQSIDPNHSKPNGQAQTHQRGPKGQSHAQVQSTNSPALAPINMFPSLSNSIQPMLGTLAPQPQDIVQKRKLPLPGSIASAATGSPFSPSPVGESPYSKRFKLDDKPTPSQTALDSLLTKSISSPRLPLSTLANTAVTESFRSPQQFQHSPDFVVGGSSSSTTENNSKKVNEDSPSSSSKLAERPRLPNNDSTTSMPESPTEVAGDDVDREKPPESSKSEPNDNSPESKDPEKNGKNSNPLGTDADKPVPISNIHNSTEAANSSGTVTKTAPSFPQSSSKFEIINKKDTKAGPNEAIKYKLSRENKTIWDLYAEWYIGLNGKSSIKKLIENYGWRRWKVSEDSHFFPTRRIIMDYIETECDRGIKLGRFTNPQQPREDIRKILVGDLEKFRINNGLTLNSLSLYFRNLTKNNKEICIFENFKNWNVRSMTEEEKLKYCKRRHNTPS
Description: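 Universal 'all 10-mer' protein binding microarrays (Agilent AMADID 015681) probed with GST-tagged S. cerevisiae TFs (full-length or DBD) made by in vitro transcription/translation (PURExpress), about 100-200 nM. Bound TF was detected with fluorescent anti-GST. Each ungapped 8-mer (which stands for itself and its reverse complement) is scored by the PBM enrichment score (E-score), a modified Wilcoxon-Mann-Whitney statistic from -0.5 to +0.5, computed with the Universal PBM Analysis Suite. Scale: above 0.35 generally sequence-specific binding.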

Sequence | PBM E-score
ATGCTTTG | -0.0656
GTGAATAA | 0.15
ACACTGCC | -0.14
ATTGGGAC | 0.102
CTCACGGA | -0.172
ATCAACCG | -0.0815
CCCCAGGC | -0.0575
ATTGTATC | -0.00275
ACAGAGGG | -0.00914
TGTCTGAA | 0.00309
ACGAGCTC | -0.222
GATACCAC | 0.329
AGATATAG | 0.12
AGGTCTAG | -0.0363
CATAGCAG | -0.167
GGTCGACA | -0.239
ACGCGAGT | -0.0728
AAGCTTCT | 0.184
AGTTTTCA | -0.098
AGGATGGG | -0.0941
AAGCAAAC | 0.0745
CACAAGAA | 0.275

Sequence | PBM E-score
GGGATACC | 0.227
ATAGTGTA | -0.0657
CAATGAAA | 0.156
AACTCAGC | -0.091
CGTAGGGA | -0.0104
AACATTGC | 0.00632
CCTCCCCA | 0.149
AGTAACCG | 0.184
CGTTGGAA | 0.0447
AACGTACC | 0.0266
AAAGAACG | -0.125
CTTTGTAA | -0.091
GAGCCGGA | 0.19
AGCAAGGG | -0.0882
ACGGACAG | -0.142
ACCATTCC | -0.0317
GGGGCGAA | -0.05
TACGTATA | 0.169
AAGGGACA | -0.23
GGCTTACA | -0.00306
GGATGGCA | -0.167
AGAGTATC | -0.144

Sequence | PBM E-score
TGTCCTAA | 0.0459
GAAGCTAC | 0.323
AAATACCA | 0.0248
AAAGCAAT | -0.0683
AACACAAC | 0.0425
ACAACTCT | 0.174
ACAACTGA | 0.0452
GCCCTCCA | -0.163
ATCTACCC | 0.024
CCATTACG | 0.00447
CACCCCCG | -0.0584
CCCACACG | 0.155
AGGTTTTG | -0.257
ACCGGTGA | -0.0706
ATTGTGTG | -0.126
ACCTCCGA | -0.214
ACTGTGCG | -0.119
GCCGAGTA | 0.115
CCTGTATC | 0.324
ATCCAACA | 0.119
ATCTAAGC | -0.141
AGATCAAC | -0.00727

Sequence | PBM E-score
AGGTACCA | 0.0906
ATGTTGCG | -0.00581
CATACTAG | 0.0727
GCTTTCAC | -0.0543
ACTTCCAC | 0.261
ATGGTGTG | -0.112
AACGGGGG | -0.182
ACGAGGCC | -0.24
CCGAAGCG | 0.02
AAGGGAAA | 0.0151
ACCAGACG | 0.0328
ATACCAGA | 0.0953
GGTGCAAA | 0.105
GGGCCGGA | 0.0959
AGTATGGA | -0.0287
CACGATGA | -0.0325
AGCCCGTG | -0.0206
ATGGCGAG | -0.255
CAGCCGTA | -0.217
ACGTACGA | -0.188
